The source gives no read counts; variants with many changes may rest on few reads.
B1: OR4K15 (parent)
chain: GUUAACGGUCAUAGGCCAUGGAAACUAGGAGCACCAUUUCGCUGCCAGUGAAGAAAUGAACAAAGAAAAUCUGGGCCAGGCAGGCAUCAAAAGAAAUAGUCUUGCGCUCAACCAGAAAGUCUGUAAUCAUUUUAAGGGUA

Variants of: B1
Assay: self-cleavage, relative activity (ratio to wild type); higher = more cleavage; in vitro, sequencing; the parent is a self-cleaving ribozyme

Variant | self-cleavage
U2C A68G A82C U120A | 0.14
A27G A33G A47G U70C A111G | 0.06
U12C A27G A47U | 0.63
G14A A86G A135U | 1.09
A59G A62G A129G | 1.57
U12A A30G U37C | 0.6
A30G A59U U122A | 1.33
U9C A33U G106A | 0.01
A5G A91U U108C | 0.03
U2A A13G A96G | 1.4
A30G A52C A55C U127C | 1.02
A11G G41U U57C A134U | 1.01
U39C U72C A117G U127A U130C U132A | 0.11
U43C A52U U108C | 0.02
U26C A52G U97C | 1.49
G58A A64G G73A | 0.18
A33G A56G A95G | 1.64
U49C A52G A95G | 1.66
A5U U57A A95G C112U | 0.06
A11G A24G U87A U108C A135G | 0.01
U38C A51U A56G U100A | 0.3

Variant | self-cleavage
U38C A62C A92G G123A | 2.07
G15A U26A A59G A60G | 1.22
A68G U72A U120C | 0.11
U49A A91G A125G | 0.26
A13U A47G U57C A78U U131C | 0.48
U12C A64G A92G A96U A117G | 1.67
U57C A68G C101A A140G | 0.05
A54G G123C U131C | 0.79
U37C U39C U97C A129G | 0.8
A33U A56G A117G | 1.42
A18G A82G A90U U108C A126U U130C | 0.04
A78U A82G U122C | 0.08
A22G A23G A30G U72A A111G | 0.1
G14A A30G A78G A111G A129G U131C | 0
A5G A23G U49C | 1.17
A22G U70C A118C U122C | 0.1
A30G A96G U122A | 0.67
A22G U43C A64G A68G | 1.55
U49C A59G G136U | 1.43
G15U A55G A69U U97C U122C | 2.17
A22C U26A G31A A60G A111G | 0.01

Variant | self-cleavage
U38C A90G U131C | 0.95
A27U A52G U130C | 1.15
A24C A30G A63G | 1.15
A22G U87A A95G U139C | 1.13
C10A A47G G123A | 0.62
C6A A18U U57C U103C A111C | 0.02
A56U C61U U132C | 1.46
C10A U37C U139C | 0.8
G7U A90G A114U | 0
A89G A111G A116G | 0
A63G A89G A116G | 0.44
C16A C42U G80C | 0.35
A116G A117U U132C | 0.11
A33G A62G A118G | 0.58
A33G U43C G44A A55G A64G A67G | 1.05
C32U U57C U122A | 1.46
U9C U130C A135G | 1.25
A4G A54U U103C A110G A126U | 0.09
U39C A86G U87C A96G C113U | 0.1
A47G A55G U108C | 0
U12A A78U A140G | 0.26

Variant | self-cleavage
A54G A68G A110G A129G | 0.17
A33G A56G A62G A68G A92G A117G U122A A125U | 0.39
U43C A51U A68G A110G | 0.13
A5G A36U A69U A82G A117G | 0.6
G1A G58U A68U A69G U103C U130C G138U | 0.38
A11C A62U U103C A114U | 0.16
A67G A69G A92U U120C U122C | 0.54
A5G A30G G84A A91U U120C | 1.68
U12C A90G A110C A116C | 0.04
U39C A55U G93A | 0.37
A18G A52G C121U | 2.69
U87C A111U U132A | 0.15
A55U A64G A118G U130C | 1
A5U A54G A69U A89U | 1.77
A23U A30G A86G | 0.21
A27G A126G A140G | 1.42
A60G C101A A111U | 0
U26C A36G A59G U72C A82G | 0.33
U9C C17A A82G | 0.28
U38C A82U A135G | 0.2
U37A A52G A78G | 0.3
